Results on 43 compounds are retold here after patent publication US6448281B1 (Boehringer Ingelheim (Canada) Ltd., priority 2000, dated 2002).

For this assay, the target named is hepatitis C virus RNA dependent polymerase (NS5B) (Hepacivirus hominis (Hepatitis C virus), UniProt P26663). In words: Inhibition of NS5B RNA dependent RNA polymerase activity (SPA, UMP-[5,6 3H] incorporation).
The mark [1] stands for this setting: IC50 μM, first compound table (printed title TABLE 10; Table 1).

Where two headings read alike, the source gives them in different places. A value given as a limit tells only on which side of the number the result lay.

The term IC50 denotes the concentration that gives 50% inhibition. A high value points to lower potency.

In turn, `O=C(O)COc1ccc2[nH]cc(CCNC(=O)c3ccc4c(c3)nc(-c3ccoc3)n4C3CCCCC3)c2c1` [Entry 11011] displayed an IC50 (IC50, Table 11) of under 1 µM. Compound `O=C(O)CCC(=O)NC1CCCC(NC(=O)c2ccc3c(c2)nc(-c2ccoc2)n3C2CCCCC2)C1` (stereo not shown) [Entry 1221] gave an IC50 under setting [1] of 10 to 25 µM. In the case of `O=C(O)/C=C/c1ccc(C[C@H](NC(=O)c2ccc3c(c2)nc(-c2ccoc2)n3C2CCCCC2)C(=O)O)cc1` [Entry 16040], the IC50 (IC50, Table 16) was under 1 µM.

The compound `O=C(O)c1ccc2c(c1)nc(-c1ccoc1)n2C1CCCCC1` [Entry 7018, 1-Cyclohexyl-2-furan-3-yl-1H-benzoimidazole-5-carboxylic Acid] displayed a 50% inhibitory concentration (IC50) (IC50 μM, Table 7) of 1 to 5 µM. As for `O=C(O)COc1ccccc1CNC1CCCC(NC(=O)c2ccc3c(c2)nc(-c2ccoc2)n3C2CCCCC2)C1` (stereo not shown) [Entry 1263], the IC50 under setting [1] lay in the range of 5 to 10 µM. On the same count and under the same terms, with `O=C(N[C@H]1CC[C@H](NC(=O)[C@@H]2CCCC[C@@H]2C(=O)O)CC1)c1ccc2c(c1)nc(-c1ccoc1)n2C1CCCCC1` [Entry 1225] the figure was 5 to 10 µM. The compound `O=C(N[C@@H](Cc1c[nH]c2ccc(O)cc12)C(=O)O)c1ccc2c(c1)nc(-c1nc3ccccc3nc1O)n2C1CCCCC1` [Entry 2115] displayed a half-maximal inhibitory concentration (IC50) (IC50 μM, Table 2) of 5 to 10 µM. `O=C(NC1CCN(Cc2ccccc2C(=O)O)CC1)c1ccc2c(c1)nc(-c1ccoc1)n2C1CCCCC1` [Entry 1271] registered an IC50 under setting [1] of 10 to 25 µM. The compound `O=C(N[C@@H](Cc1ccc(O)cc1)c1noc(C(F)(F)F)n1)c1ccc2c(c1)nc(-c1ccoc1)n2C1CCCCC1` showed an IC50 under setting [1] of 5 to 10 µM.

As for `O=C(N[C@@H](Cc1ccc(O)cc1)C(=O)NCCN1CCOCC1)c1ccc2c(c1)nc(-c1ccoc1)n2C1CCCCC1` [Entry 1118], under setting [1], the IC50 fell in the range of 1 to 5 µM. Same read-out and setting: the result for `O=C(O)COc1ccc(CNC2CCCC(NC(=O)c3ccc4c(c3)nc(-c3ccoc3)n4C3CCCCC3)C2)cc1` (stereo not shown) [Entry 1284] reads 10 to 25 µM.

Regarding `[N-]=[N+]=Nc1ccc(C[C@H](NC(=O)c2ccc3c(c2)nc(-c2ccoc2)n3C2CCCCC2)C(=O)O)cc1` [Entry 1027], under setting [1], the IC50 was 1 to 5 µM.

Take `O=C(Cc1ccc2c(c1)nc(-c1ccccn1)n2C1CCCCC1)N[C@@H](Cc1ccc(O)cc1)C(=O)O` [Entry 9001]: the half-maximal inhibitory concentration (IC50) (IC50 μM, Table 9) is 10 to 25 µM. `O=C(NC1CCN(C(=O)Nc2ccccc2C(=O)O)CC1)c1ccc2c(c1)nc(-c1ccoc1)n2C1CCCCC1` [Entry 1201] yielded an IC50 under setting [1] of 10 to 25 µM. Where the note is “IC50 μM, Table 2”, `O=C(N[C@@H](Cc1c[nH]c2ccc(O)cc12)C(=O)O)c1ccc2c(c1)nc(Cc1ccccc1)n2C1CCCCC1` [Entry 2102] gave an IC50 of 1 to 5 µM. Turning to `O=C(COc1ccc(-c2nc3cc(C(=O)O)ccc3n2C2CCCCC2)cc1)NCc1ccccc1` [Entry 7008], the IC50 (IC50 μM, Table 7) lay in the range of 10 to 25 µM. Turning to `O=C(O)[C@@H]1C[C@H](O)CN1C(=O)c1ccc2c(c1)nc(-c1ccoc1)n2C1CCCCC1` [Entry 6002], the half-inhibitory concentration (IC50) (IC50 μM, Table 6) lay within 10 to 25 µM.

`Cc1nc2cc(C(=O)N[C@@H](Cc3c[nH]c4ccc(O)cc34)C(=O)O)ccc2n1C1CCCCC1` [Entry 2040] yielded an IC50 (IC50 μM, Table 2) of 10 to 25 µM. For the setting “IC50, Table 13”, `NC(=O)[C@H](Cc1c[nH]c2ccc(N)cc12)NC(=O)c1ccc2c(c1)nc(-c1ccoc1)n2C1CCCCC1` [Entry 13005, 1-Cyclohexyl-2-furan-3-yl-1H-benzimidazole-5-carboxylic Acid [(S)-2-(5-Amino-1H-indol-3-yl)-1-carbamoyl-ethyl]-amide] yielded an IC50 of under 1 µM. For the compound `O=C(Nc1ccc(C[C@H](NC(=O)c2ccc3c(c2)nc(-c2ccoc2)n3C2CCCCC2)C(=O)O)cc1)c1ccccc1` [Entry 1080, (S)-2-{[1-(1-Cyclohexyl-2-furan-3-yl-1H-benzoimidazol-5-yl)-methanoyl]amino}-3-{4-[(1-phenylmethanoyl)-amino]-phenyl}-propionic Acid], under setting [1], the half-maximal inhibitory concentration (IC50) is 1 to 5 µM.

Consider `Cc1cc2c(cc1C(=O)N[C@@H](Cc1c[nH]c3ccc(O)cc13)C(=O)O)nc(-c1ccoc1)n2C1CCCCC1` [Entry 5006, (S)-2-{[1-(1-Cyclohexyl-2-furan-3-yl-6-methyl-1H-benzimidazol-5-yl)-methanoyl]-amino}-3-(5-hydroxy-1H-indol-3-yl)-propionic Acid], for which the IC50 (IC50 μM, Table 5) was 1 to 5 µM. As for `CN(C(=O)c1ccc2c(c1)nc(-c1ccoc1)n2C1CCCCC1)[C@@H](Cc1ccc(O)cc1)C(=O)O` [Entry 10001], the IC50 (IC50 μM, Table 10) was in the range of 10 to 25 µM.

In turn, `O=C(N[C@@H](Cc1c[nH]c2ccc(O)cc12)C(=O)O)c1ccc2c(c1)nc(-c1ccc(S(=O)(=O)O)o1)n2C1CCCCC1` [Entry 2107] yielded an IC50 (IC50 μM, Table 2) of 1 to 5 µM.

Compound `COc1ccc(CCNC(=O)c2ccc3c(c2)nc(-c2ccccn2)n3C2CCCCC2)cc1OC` [Entry 2108, 1-Cyclohexyl-2-pyridin-2-yl-1H-benzoimidazole-5-carboxylic Acid [2-(3,4-Dimethoxyphenyl)ethyl]amide] gave an IC50 of 10 to 25 µM. In turn, `O=C(N[C@@H](Cc1c[nH]c2ccc(O)cc12)c1cscn1)c1ccc2c(c1)nc(-c1ccoc1)n2C1CCCCC1` [Entry 14007, 1-Cyclohexyl-2-furan-3-yl-1H-benzimidazole-5-carboxylic Acid [(S)-2-(5-Hydroxy-1H-indol-3-yl)-1-thiazol-4-yl-ethyl]-amide] returned an IC50 (IC50, Table 14) of under 1 µM. Where the note is “IC50 μM, Table 2”, `COc1ccc(CCNC(=O)c2ccc3c(c2)nc(-c2ccc(O)cc2)n3C2CCCCC2)cc1OC` [Entry 2001] displayed a half-inhibitory concentration (IC50) of 10 to 25 µM. With `O=C(O)c1cccc(NC(=O)N2CCCC(NC(=O)c3ccc4c(c3)nc(-c3ccoc3)n4C3CCCCC3)C2)c1` (stereo not shown) [Entry 1209], the half-maximal inhibitory concentration (IC50) under setting [1] lay within 1 to 5 µM. With `CC(C)(C)Oc1ccc(C[C@H](NC(=O)c2ccc3c(c2)nc(-c2ccoc2)n3C2CCCCC2)C(=O)O)cc1` [Entry 1030], the half-inhibitory concentration (IC50) under setting [1] is 5 to 10 µM.

On to `O=C(NCc1nc2ccccc2[nH]1)c1ccc2c(c1)nc(-c1ccccn1)n2C1CCCCC1` [Entry 2074], for which the IC50 (IC50 μM, Table 2) is 5 to 10 µM.

`CC(O)c1cc(C[C@H](NC(=O)c2ccc3c(c2)nc(-c2ccoc2)n3C2CCCCC2)C(=O)O)ccc1O` (mixture of isomers) [Entry 16052] yielded an IC50 (IC50, Table 16) of under 1 µM. Consider `C[C@H](NC(=O)c1ccc2c(c1)nc(-c1ccccn1)n2C1CCCCC1)C(=O)O` [Entry 2024], for which the concentration for half-maximal inhibition (IC50) (IC50 μM, Table 2) was in the range of 10 to 25 µM. `O=C(O)COc1ccc2[nH]cc(C[C@H](NC(=O)c3ccc4c(c3)nc(-c3ccc(C(F)(F)F)cc3)n4C3CCCCC3)C(=O)O)c2c1` [Entry 12024] showed an IC50 (IC50, Table 12) of under 1 µM. The compound `COc1ccc(-c2nc3cc(C(=O)NC(C(=O)O)c4ccc(OC)c(OC)c4)ccc3n2C2CCCCC2)cc1` (stereo not shown) [Entry 2031] gave an IC50 (IC50 μM, Table 2) of 10 to 25 µM. Still for that read-out and setting: with `O=C(O)C[C@H](NC(=O)c1ccc2c(c1)nc(-c1ccccn1)n2C1CCCCC1)C(=O)O` [Entry 2055] the figure was 1 to 5 µM. Regarding `Cn1cc(C[C@H](NC(=O)c2ccc3c(c2)nc(-c2ccoc2)n3C2CCCCC2)C(N)=O)c2cc(OCC(=O)O)ccc21` [Entry 13003, [3((S)-2-Carbamoyl-2-{[1-(1-cyclohoxyl-2-furan-3-yl-1H-benzimidazol-5-yl)-methanoyl]-amino}-ethyl)-1-methyl-1H-indol-5-yloxy]-acetic Acid], the IC50 (IC50, Table 13) was under 1 µM. Compound `Cc1cc(OCC(=O)O)cc(C)c1CC(NC(=O)c1ccc2c(c1)nc(-c1ccoc1)n2C1CCCCC1)C(=O)O` (stereo not shown) [compound 20001] yielded an IC50 (IC50, Table 20) of under 1 µM.

Turning to `CS(=O)(=O)Nc1ccc2[nH]cc(C[C@H](NC(=O)c3ccc4c(c3)nc(-c3ccoc3)n4C3CCCCC3)C(=O)O)c2c1` [Entry 11025, (S)-2-{[1-(1-Cyclohexyl-2-furan-3-yl-1H-benzimidazol-5-yl)-methanoyl]-amino}-3-(5-methanesulfonylamino-1H-indol-3-yl)-propionic Acid], the concentration for half-maximal inhibition (IC50) (IC50, Table 11) was under 1 µM. `O=C(NC(C(=O)O)c1ccc2c(c1)OCO2)c1ccc2c(c1)nc(-c1ccoc1)n2C1CCCCC1` (stereo not shown) [Entry 1009] gave a half-inhibitory concentration (IC50) under setting [1] of 1 to 5 µM.

With `Cc1c(C(=O)N[C@@H](Cc2c[nH]c3ccc(O)cc23)C(=O)O)ccc2c1nc(-c1ccoc1)n2C1CCCCC1` [Entry 5007, (S)-2-{[1-(1-Cyclohexyl-2-furan-3-yl-4-methyl-1H-benzimidazol-5-yl)-methanoyl]-amino}-3-(5-hydroxy-1H-indol-3-yl)-propionic Acid], the half-inhibitory concentration (IC50) (IC50 μM, Table 5) was under 1 µM. Compound `COc1ccc([C@@H](C)NC(=O)c2ccc3c(c2)nc(-c2ccccn2)n3C2CCCCC2)cc1OC` [Entry 2042, 1-Cyclohexyl-2-pyridin-2-yl-1h-benzoimidazole-5-carboxylic Acid [(R)-1(3,4-dimethoxyphenyl)ethyl]amide] displayed an IC50 (IC50 μM, Table 2) of 1 to 5 µM. The compound `CC(Cc1ccc(O)cc1)(NC(=O)c1ccc2c(c1)nc(-c1ccoc1)n2C1CCCCC1)C(=O)O` (stereo not shown) [Entry 1028] yielded a 50% inhibitory concentration (IC50) under setting [1] of 1 to 5 µM.

As for `O=C(NC(Cc1ccc(O)cc1)C(F)(F)F)c1ccc2c(c1)nc(-c1ccoc1)n2C1CCCCC1` (racemic) [Entry 1122, 1-Cyclohexyl-2-furan-3-yl-1H-benzimidazole-5-carboxylic Acid [2,2,2-trifluoro-1-(4-hydroxy-benzyl)-ethyl]-amide], the IC50 under setting [1] lay in the range of 5 to 10 µM. The same measure, in the same setting: the result for `O=C(NC1CCCN(C(=O)Nc2ccccc2C(=O)O)C1)c1ccc2c(c1)nc(-c1ccoc1)n2C1CCCCC1` (stereo not shown) [Entry 1200] reads 10 to 25 µM.
